In PMC4336329 (PLoS ONE, 2015):
About 14,000 (4.5%) of roughly 310,000 compounds showed an effect of 50% or more. Effects have a minus sign here. This is one part of the list.

Each compound was assayed against human ether-à-go-go-related gene (hERG) potassium channel (human, UniProt Q12809) (assay: primary screen, population patch clamp on CHO cells stably expressing hERG).
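Also: peak tail current of the secondary pulse compared with the same well before compound.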

Sequence of human ether-à-go-go-related gene (hERG) potassium channel (Q12809 whole entry, looked up): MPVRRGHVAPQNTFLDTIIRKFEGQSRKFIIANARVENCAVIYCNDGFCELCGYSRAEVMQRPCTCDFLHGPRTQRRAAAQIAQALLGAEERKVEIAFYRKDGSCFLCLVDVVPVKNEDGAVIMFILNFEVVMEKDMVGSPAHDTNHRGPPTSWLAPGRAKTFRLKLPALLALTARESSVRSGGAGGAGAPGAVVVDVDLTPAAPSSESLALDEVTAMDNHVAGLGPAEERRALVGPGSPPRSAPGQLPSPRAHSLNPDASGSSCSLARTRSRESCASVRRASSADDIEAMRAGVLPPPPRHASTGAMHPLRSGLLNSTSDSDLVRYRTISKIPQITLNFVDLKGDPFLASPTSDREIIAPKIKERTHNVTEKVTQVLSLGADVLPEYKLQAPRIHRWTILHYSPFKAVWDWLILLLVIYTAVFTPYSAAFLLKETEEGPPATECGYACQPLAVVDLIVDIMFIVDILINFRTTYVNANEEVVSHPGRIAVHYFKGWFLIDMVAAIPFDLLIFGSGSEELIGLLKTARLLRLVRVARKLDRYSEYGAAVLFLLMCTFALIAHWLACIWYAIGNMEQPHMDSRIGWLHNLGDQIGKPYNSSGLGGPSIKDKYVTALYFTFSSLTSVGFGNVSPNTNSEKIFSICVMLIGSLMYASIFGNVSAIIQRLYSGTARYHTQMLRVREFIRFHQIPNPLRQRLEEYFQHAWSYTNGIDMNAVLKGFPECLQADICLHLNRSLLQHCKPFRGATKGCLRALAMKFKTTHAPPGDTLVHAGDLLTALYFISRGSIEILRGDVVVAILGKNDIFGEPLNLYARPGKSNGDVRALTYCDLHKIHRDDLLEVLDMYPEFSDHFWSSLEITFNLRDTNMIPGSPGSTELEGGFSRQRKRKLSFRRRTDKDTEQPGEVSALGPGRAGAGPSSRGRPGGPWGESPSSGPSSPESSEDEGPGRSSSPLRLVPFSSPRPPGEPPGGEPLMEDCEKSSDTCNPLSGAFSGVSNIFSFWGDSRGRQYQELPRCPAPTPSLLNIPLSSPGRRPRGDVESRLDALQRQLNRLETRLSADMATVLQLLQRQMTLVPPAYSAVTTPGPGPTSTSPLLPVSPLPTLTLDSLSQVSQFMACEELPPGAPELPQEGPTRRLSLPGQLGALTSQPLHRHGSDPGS

SMILES	hERG current change (%, negative = inhibition) at 10uM [%]
CC1CCCC(NC(=O)CN2CCN(S(=O)(=O)c3cccs3)CC2)C1C (stereo not drawn)	-0.883
COCCn1nnnc1C(c1ccccc1)N1CCN(c2ccccc2)CC1.Cl (stereo not drawn)	-29.3
CCCCn1[nH]c(-c2ccccc2)cc1=O	2.97
CC(C)Oc1ccc(S(=O)(=O)N2CCOCC2)cc1NC(=O)Cc1cccs1	-33.4
CC1CCCN(C(=O)C2CCN(CCCc3ccccc3)CC2)C1.O=C(O)C(=O)O (stereo not drawn)	-47.5
CC(=O)c1sc(N/N=C\c2ccc(N(C)C)cc2)nc1C	12.9
Cc1nc2ccccc2c(=O)n1NC(=O)/C=C/c1ccccc1	-16.6
O=C(N/N=C/c1cccnc1)c1ccc(Cl)c(Cl)c1	-1.48
CC1(C)Cc2c(cnn2-c2cccc(F)c2)C(NC(=O)C2CCOCC2)C1 (stereo not drawn)	-43.4
CN1CCN(C(=O)c2ccc3c(=O)n(Cc4ccco4)c(=S)[nH]c3c2)CC1	-4.06
O=C1c2cccnc2C(Nc2ccc(Cl)cc2)N1Cc1cccs1 (stereo not drawn)	9.6
CCO[C@H]1OC(C(=O)N2CCOCC2)=C[C@@H](c2ccccc2)[C@@H]1CCCO	-4.87
COc1ccc(-c2cnc(N)n2CC2CCCO2)cc1 (stereo not drawn)	-5.53
O=C(c1cc(Cl)cc(Cl)c1)N1CCN(c2cc(C(F)(F)F)nc3ccccc23)CC1	-14.8
Cn1cnc2ccc([N+](=O)[O-])cc2c1=O	7.82
Cc1ccc(S(=O)(=O)N2CCCCC2)cc1C(=O)c1nccn1C	-2.56
N#Cc1ccccc1NCc1ccccc1	6.33
Cc1ccc(S(=O)(=O)NC(=O)Nc2nc(-c3ccc(F)c(F)c3)cs2)cc1	11.3
Cc1ccc(Nc2nc(-c3sc(NC(=O)c4ccccc4)nc3C)cs2)cc1	12.6
COc1ccc2[nH]c(C)c(CCNC(=S)Nc3ccccc3OC)c2c1	8.79
Cc1ccc(-c2ccc(/C=C/C(=O)c3ccccc3)o2)cc1	-1.28
Cc1occc1C(=O)N/N=C/C=C\c1ccccc1[N+](=O)[O-]	-18.7
CC(=O)Nc1ccc2[nH]ccc2c1	0.471

SMILES	hERG current change (%, negative = inhibition) at 10uM [%]
COc1ccc(OCCNC(=O)Nc2cc(F)c(F)cc2Cl)cc1	-5.04
CC12CN3CC(C)(CN(C1)C3c1ccccc1Cl)C2O (stereo not drawn)	-8.03
NC(=O)CSc1ccc(Br)cc1	-5.33
COC(=O)Cn1nc(C)c2ccccc2c1=O	9.18
Cc1nc(N2CCOCC2)nc(N2CCN(c3ccccc3)CC2)c1[N+](=O)[O-]	8.18
CCNC(=O)CCn1nc(-c2ccc(Cl)cc2)c2ccccc2c1=O	-29
CCn1cc(C(=O)N2CCN(c3ccccn3)CC2)c(=O)c2cc(S(=O)(=O)N3CCC(C)CC3)ccc21	-55.9
O=C(CCc1nc2ccccc2c(=O)[nH]1)NNC(=O)c1ccccc1Cl	-18.4
CS(=O)(=O)N(CC(=O)N1CCc2ccccc2C1)Cc1ccc(F)cc1	-14.6
CCCCN(C)CCNC(=O)CN1C(=O)CSc2ccc(S(=O)(=O)N3CCCC3)cc21	-3.28
CCO.C[C@H]1c2cccc(O)c2C(O)=C2C(=O)[C@]3(O)C(O)=C(C(N)=O)C(=O)[C@@H](N(C)C)[C@@H]3[C@@H](O)[C@@H]21.Cl.O	7.31
CC(=O)N1CCN(C(=O)CCc2cc(C(C)(C)C)c(O)c(C(C)(C)C)c2)CC1	3.08
O=C(N/N=C/c1nn(-c2ccccc2)cc1-c1ccc(Cl)cc1)c1ccncc1	18.1
Cc1ccccc1C(=O)NNC(=O)C(C)N1C(=O)c2ccccc2C1=O (stereo not drawn)	2.16
Cc1cc(C)c(NC(=O)c2ccc3c(c2)C(=O)N(Cc2cccnc2)C3=O)c(C)c1	13.3
COCCn1c(Cc2ccccc2)nnc1SCC(=O)N(C)C	14.3
Cc1ccccc1C(=O)N1CCC(C(=O)NCCc2ccc(S(N)(=O)=O)cc2)CC1	16.2
CCS(=O)(=O)c1nc(S(=O)(=O)c2ccc(Cl)cc2)c(NCCCN2CCCC2=O)s1	-24.1
Cc1cc(NS(=O)(=O)c2ccc(Cl)cc2)nn1CC(=O)NCc1ccco1	6.42
CCOc1ccc(N2C(=O)C3C(C2=O)C3(c2ccccc2)c2ccccc2)cc1 (stereo not drawn)	-3.59
S=C1NCCOCCNC(=S)NCCOCCOCCOCCN1	10.2
Cc1ccccc1NC(=O)c1c([N+](=O)[O-])cnn1C	15.8
